The list shows a part of the results. Single values are uncertain, as repeats are few or missing.
Key:
Experiment in all cases: cell count relative to DMSO control; melanoma cells; higher = more viable cells
Conditions in all cases: library dose: low library concentration; 72 h; first compound 0.4 µM
[1] = system: WM115
[2] = system: WM1716
[3] = system: WM1745
[4] = system: WM3526
[5] = system: WM3619
[6] = system: WM451Lu
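Note: cell number obtained by counting DAPI-stained nuclei in high-throughput microscope images with image analysis software, screen run in 1,536-well plates.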

| SMILES | cell count [1] | cell count [2] | cell count [3] | cell count [4] | cell count [5] | cell count [6] |
| --- | --- | --- | --- | --- | --- | --- |
| C[C@@H](N)c1ccc(C(=O)Nc2ccnc3[nH]ccc23)cc1 + Cc1nc(Nc2ncc(C(=O)Nc3c(C)cccc3Cl)s2)cc(N2CCN(CCO)CC2)n1 [dasatanib] (partner dose 0.004 µM) | 93.1% | 50% | 46.3% | 93.8% | 78.4% | 84.9% |
| C[C@@H](N)c1ccc(C(=O)Nc2ccnc3[nH]ccc23)cc1 + O=c1cc(-c2cccc3c2Sc2ccccc2S3)oc(N2CCOCC2)c1 [KU55933] (partner dose 1 µM) | 102% | 64.6% | 88.7% | 113% | 95.5% | 99.8% |
| Cn1sc(=O)n(Cc2ccccc2)c1=O + Cn1cncc1[C@@](N)(c1ccc(Cl)cc1)c1ccc2c(c1)c(-c1cccc(Cl)c1)cc(=O)n2C [tipifarnib] (partner dose 0.01 µM) | 94.8% | 70.6% | 88.7% | 74.8% | 73.5% | 107% |
| C[C@@H](N)c1ccc(C(=O)Nc2ccnc3[nH]ccc23)cc1 + C[C@@H](Oc1cc(-c2cnn(C3CCNCC3)c2)cnc1N)c1c(Cl)ccc(F)c1Cl [Crizotinib] (partner dose 0.2 µM) | 114% | 73% | 83.3% | 99.2% | 106% | 120% |
| Cn1sc(=O)n(Cc2ccccc2)c1=O + Nc1ncn([C@H]2C[C@H](O)[C@@H](CO)O2)c(=O)n1 [decitabine] (partner dose 0.1 µM) | 92.6% | 92.2% | 90% | 111% | 84.5% | 95.2% |
| C[C@@H](N)c1ccc(C(=O)Nc2ccnc3[nH]ccc23)cc1 + Nc1nc(F)nc2c1ncn2[C@@H]1O[C@H](CO)[C@@H](O)[C@@H]1O [fludarabine] (partner dose 0.2 µM) | 98.3% | 69.5% | 81% | 31.2% | 97.3% | 60.1% |
| C[C@@H](N)c1ccc(C(=O)Nc2ccnc3[nH]ccc23)cc1 + CNC(=O)c1cc(Oc2ccc(NC(=O)Nc3ccc(Cl)c(C(F)(F)F)c3)cc2)ccn1 [sorafenib] (partner dose 0.4 µM) | 114% | 77.6% | 72% | 109% | 93.7% | 103% |
| C[C@@H](N)c1ccc(C(=O)Nc2ccnc3[nH]ccc23)cc1 + O=C(Nc1ccccc1)c1cc([N+](=O)[O-])ccc1Cl [GW9662] (partner dose 2 µM) | 103% | 75.7% | 87.9% | 129% | 119% | 99.7% |
| C[C@@H](N)c1ccc(C(=O)Nc2ccnc3[nH]ccc23)cc1 + O=C(O)[C@@H]1[O][Sb](=[O])([O][Sb]2(=[O])[O][C@H]([C@H](O)CO)[C@H](O)[C@H](C(=O)O)[O]2)[O][C@H]([C@H](O)CO)[C@@H]1O [stibogluconate] (partner dose 2 µM) | 104% | 68% | 75.9% | 109% | 131% | 106% |
| CCCCCCCCCCCCCCCCCCOP(=O)([O-])OC1CC[N+](C)(C)CC1 [Perifosine] + C[C@]1(O)C[C@@H](c2nc(-c3ccc4ccc(-c5ccccc5)nc4c3)c3c(N)nccn32)C1 [OSI906] (partner dose 0.4 µM) | 88.9% | 77% | 75.6% | 78.3% | 106% | 89.9% |
| CCCCCCCCCCCCCCCCCCOP(=O)([O-])OC1CC[N+](C)(C)CC1 [Perifosine] + CS(=O)(=O)CCNCc1ccc(-c2ccc3ncnc(Nc4ccc(OCc5cccc(F)c5)c(Cl)c4)c3c2)o1 [lapatinib] (partner dose 0.8 µM) | 89% | 98.7% | 88.5% | 127% | 98.7% | 92.2% |
| CCCCCCCCCCCCCCCCCCOP(=O)([O-])OC1CC[N+](C)(C)CC1 [Perifosine] + C[C@@H](Oc1cc(-c2cnn(C3CCNCC3)c2)cnc1N)c1c(Cl)ccc(F)c1Cl [Crizotinib] (partner dose 0.2 µM) | 97.5% | 117% | 123% | 91.6% | 90.8% | 83% |
| Cn1sc(=O)n(Cc2ccccc2)c1=O + CO[C@H]1C[C@@H]2CC[C@@H](C)[C@@](O)(O2)C(=O)C(=O)N2CCCC[C@H]2C(=O)O[C@H]([C@H](C)C[C@@H]2CC[C@@H](OCCO)[C@H](OC)C2)CC(=O)[C@H](C)/C=C(\C)[C@@H](O)[C@@H](OC)C(=O)[C@H](C)C[C@H](C)/C=C/C=C/C=C/1C [everolimus] (partner dose 0.02 µM) | 81.7% | 90.8% | 88.9% | 82.3% | 77% | 91.6% |
| C[C@@H](N)c1ccc(C(=O)Nc2ccnc3[nH]ccc23)cc1 + CC(=O)c1c(C)c2cnc(Nc3ccc(N4CCNCC4)cn3)nc2n(C2CCCC2)c1=O [palbociclib] (partner dose 0.04 µM) | 87.6% | 59.5% | 75.8% | 70.3% | 60.3% | 70.6% |
| Cn1sc(=O)n(Cc2ccccc2)c1=O + CCCCCCCCc1ccc(CCC(N)(CO)CO)cc1 [fingolimod] (partner dose 2 µM) | 99.4% | 72.3% | 94.3% | 91.3% | 91.6% | 103% |
| Cn1sc(=O)n(Cc2ccccc2)c1=O + CS(=O)(=O)c1ccc(C(=O)Nc2ccc(Cl)c(-c3ccccn3)c2)c(Cl)c1 [vismodegib] (partner dose 1 µM) | 95.4% | 96.7% | 94.1% | 109% | 105% | 107% |
| C[C@@H](N)c1ccc(C(=O)Nc2ccnc3[nH]ccc23)cc1 + NCC(=O)Nc1ccc(-n2nc(C(F)(F)F)cc2-c2ccc3c(ccc4ccccc43)c2)cc1 [OSU03012] (partner dose 1 µM) | 91% | 73.6% | 88.5% | 37.1% | 103% | 69.6% |
| Cn1sc(=O)n(Cc2ccccc2)c1=O + COCC[n+]1c2c(n(Cc3cnccn3)c1C)C(=O)c1ccccc1C2=O [YM155] (partner dose 0.0004 µM) | 102% | 95.3% | 92.7% | 101% | 99.1% | 81.4% |
| CCCCCCCCCCCCCCCCCCOP(=O)([O-])OC1CC[N+](C)(C)CC1 [Perifosine] + Nc1cccc2c1CN(C1CCC(=O)NC1=O)C2=O [lenalidomide] (partner dose 1 µM) | 96.1% | 81.7% | 98% | 93.4% | 80.5% | 99.1% |
| CCCCCCCCCCCCCCCCCCOP(=O)([O-])OC1CC[N+](C)(C)CC1 [Perifosine] + Nc1ccn([C@@H]2O[C@H](CO)[C@@H](O)C2(F)F)c(=O)n1 [gemcitabine] (partner dose 0.0004 µM) | 89.2% | 85.4% | 74.1% | 97.7% | 114% | 98.5% |
| C[C@@H](N)c1ccc(C(=O)Nc2ccnc3[nH]ccc23)cc1 + CO[C@@H]1[C@H](N(C)C(=O)c2ccccc2)C[C@H]2O[C@]1(C)n1c3ccccc3c3c4c(c5c6ccccc6n2c5c31)C(=O)NC4 [Midostaurin] (partner dose 0.08 µM) | 114% | 79.9% | 80.4% | 100% | 74.7% | 65.4% |
| Cn1sc(=O)n(Cc2ccccc2)c1=O + Cc1nc(Nc2ncc(C(=O)Nc3c(C)cccc3Cl)s2)cc(N2CCN(CCO)CC2)n1 [dasatanib] (partner dose 0.004 µM) | 85.5% | 93.2% | 81.9% | 94% | 97.4% | 89.6% |
| Cn1sc(=O)n(Cc2ccccc2)c1=O + CC(C)C[C@H](NC(=O)[C@H](Cc1ccccc1)NC(=O)c1cnccn1)B(O)O [Bortezomib] (partner dose 0.001 µM) | 98.5% | 75.1% | 100% | 85.2% | 84.3% | 81.1% |
| Cn1sc(=O)n(Cc2ccccc2)c1=O + NC(=O)Nc1cc(-c2cccc(F)c2)sc1C(=O)N[C@H]1CCCNC1 [AZD7762] (partner dose 0.02 µM) | 90.5% | 92.1% | 108% | 80.9% | 85.1% | 91.7% |
| CCCCCCCCCCCCCCCCCCOP(=O)([O-])OC1CC[N+](C)(C)CC1 [Perifosine] + C=CCNC1=C2C[C@@H](C)C[C@H](OC)[C@H](O)[C@@H](C)/C=C(\C)[C@H](OC(N)=O)[C@@H](OC)/C=C\C=C(/C)C(=O)NC(=CC1=O)C2=O [Tanespimycin] (partner dose 0.002 µM) | 89.7% | 94.3% | 81.1% | 91.4% | 97% | 107% |
| CCCCCCCCCCCCCCCCCCOP(=O)([O-])OC1CC[N+](C)(C)CC1 [Perifosine] + CN(c1ncccc1CNc1nc(Nc2ccc3c(c2)CC(=O)N3)ncc1C(F)(F)F)S(C)(=O)=O [PF562271] (partner dose 0.08 µM) | 95.4% | 84.2% | 79.7% | 97% | 124% | 85.7% |
| C[C@@H](N)c1ccc(C(=O)Nc2ccnc3[nH]ccc23)cc1 + CO[C@H]1C[C@@H]2CC[C@@H](C)[C@@](O)(O2)C(=O)C(=O)N2CCCC[C@H]2C(=O)O[C@H]([C@H](C)C[C@@H]2CC[C@@H](OCCO)[C@H](OC)C2)CC(=O)[C@H](C)/C=C(\C)[C@@H](O)[C@@H](OC)C(=O)[C@H](C)C[C@H](C)/C=C/C=C/C=C/1C [everolimus] (partner dose 0.02 µM) | 79.7% | 60.2% | 91% | 78.2% | 58.9% | 94.3% |
| C[C@@H](N)c1ccc(C(=O)Nc2ccnc3[nH]ccc23)cc1 + O=C(Nc1cccc(Cl)c1)Nc1ncc(CCNc2ncnc3ccsc23)s1 [SNS314] (partner dose 0.0008 µM) | 65.4% | 69.2% | 77.9% | 103% | 107% | 102% |
